The RNAGym collection of RNA variant scans (doi:10.1093/nar/gkz1192)
The source gives no read counts; variants with many changes may rest on few reads.

B1: CPEB3 Ribozyme (parent)
chain: UAACAGGGGGCCACAGCAGAAGCGUUCACGUCGCAGCCCCUGUCAGAUUCUGGUGAAUCUGCGAAUUCUGCUGUAUAUCUC

Variants of: B1
Assay: self-cleavage, relative activity (ratio to wild type); higher = more cleavage; in vitro, sequencing
Summary of the method: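 Relative activity was defined as the cleaved/total read fraction for a variant divided by the same fraction for the unmutated ribozyme. CPEB3 self-cleaving ribozyme libraries were made by rounds of error-prone PCR, barcoded, and transcribed in vitro with T7 RNA polymerase for 5 hours at 37°C, and cleavage ran through transcription plus a 15 min DNase I step before EDTA. Illumina sequencing of template-switched reverse transcripts gave the reads, and DNA sequencing mapped the barcodes. Averages come from three batches, using variants with at least 5 reads.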
UAACAGGGGACCACAGCAGAAGCGUUCACGUCGCAGCCCCUGUCAGAUCCUGGUGAAUCUGCGAAUCCUGCUGUAUAUCUC [G10A U49C U67C] showed a self-cleavage of 0.09. In the case of UAACAGGGGACCACAGCAGAAGCGUUCACGUCGCAGCCCCUGUCAGAUUCUGGCGAAUCUGCGAAUUUUGCUGUAUAUCUC [G10A U54C C68U], the self-cleavage is reported as 0.08. UAACAGGGGACCACAGCAGAAGCGUUCACGUCGCAGCCCCUGUCAGAUUCUGGUGAAUCAGCGAAUUCCGCAGUAUAUCUC [G10A U60A U69C U72A] gave a self-cleavage of 0.05. Variant UAACAGGGGACCACAGCAGAAGCGUUCACGUCGCAGCCCCUGUCAGAUUCUGGUGAAUCUGCGAAUUCUGCUGCAUAUCAC [G10A U74C U80A] has a self-cleavage of 0.39. For UAACAGGGGCCCACGGCAGAAGUGCUCACGACGCAGUCCCUGUCAGAUUCUGGUGAAUCCGCGAAUUCUGCUGUAUAUCUC [G10C A15G C23U U25C U31A C37U U60C], the self-cleavage was 0.05. Work on UAACAGGGGCCCACUGCAGAAGCGUUCACGUCGCAGCCCCUGUCAGAUUCUGGUGUAACUGCGAAUUCUGCUGUAUAUCUC [G10C A15U A56U U58A] yielded a self-cleavage of 0.11. UAACAGGGGCCCACAGCGGGAGCGUUCACGUCGCAGCCCCUGUCAGAUUCUGGUGAAUCCGCGGAUUCUGCUGUAUAUCUC [G10C A18G A20G U60C A64G] gave a self-cleavage of 0.22. UAACAGGGGCCCACAGCGGAAGCGUUCACGUCGCAGCCCCUGUCAGAUUCUGGUGAAUCUGCGGAUUCUGCUGUAUAUCUC [G10C A18G A64G] gave a self-cleavage of 0.12. With UAACAGGGGCCCACAGCAGAAGCGUUCGCGUCGCAGCCCCUGUCAGAUUCUGGUGAAUCUGCGAAUUCCGCUGUAUAUCUC [G10C A28G U69C] the self-cleavage was 0.16. Work on UAACAGGGGCCCACAGCAGAAGCGUUCUCGUCGCAGCCCCUGUCGGAUUCUGGCGAAUCUGCGAAUUCUGCUGUAUAUCUC [G10C A28U A45G U54C] yielded a self-cleavage of 0.11. For UAACAGGGGCCCACAGCAGAAGCGUUCUCGUCGCAGCCCCUGUCAGAUCCUUGUGAAUCUGCGAAUUCUGCUGUAUAUCUC [G10C A28U U49C G52U], the self-cleavage was 0.04. For UAACAGGGGCCCACAGCAGAAGCGUUCACGUCGCGGCCCCUGUCAGAUUCUGGAGGAUCUGCGAAUUCUGCUGUAUAUCUC [G10C A35G U54A A56G], the self-cleavage was 0.1. Variant UAACAGGGGCCCACAGCAGAAGCGUUCACGUCGCGGCCCCUGUCAGAUUCUGGUGAACCUGCGAAUUCUGCCGUAUAUCUC [G10C A35G U58C U72C] has a self-cleavage of 0.2. In the case of UAACAGGGGCCCACAGCAGAAGCGUUCACGUCGCAGCCCCUGUCAGUUUCUGGUGAACCUGCGAAUUCUGCUGUAUGUCUC [G10C A47U U58C A77G], the self-cleavage is reported as 0.1. Work on UAACAGGGGCCCACAGCAGAAGCGUUCACGUCGCAGCCCCUGUCAGAUUCUGGUGUAUCUGCGAGUUCCGCUGUAUAUCUC [G10C A56U A65G U69C] yielded a self-cleavage of 0.12. Variant UAACAGGGGCCAACAGCAGAAGCGUUCACGUCGCAGCCCCUGUCAGGUUCUGGUGAAUCUGCGAAUUCUGCUGUAUAUCUC [G10C C12A A47G] has a self-cleavage of 0.09. For UAACAGGGGCCCACAGCAAAAGCGUUCACGUCGAAGCCCCUGUCGGAUUCUGGUGAAUCUGCGAAUUCUGCUGUAUAUCUC [G10C G19A C34A A45G], the self-cleavage was 0.07. For UAACAGGGGCCCACAGCAUAAGCGCUCACGUCGCAGCCCCUGUCAGGAUCUGGUGAAUCUGCGAAUUCUGCUGUAAAUCUC [G10C G19U U25C A47G U48A U76A], the self-cleavage was 0.15. Work on UAACAGGGGCCCACAGCAGAAGCGUUCACAUCGCAGCCCCUGUCAGAUUCUGGUGAGACUGCGGAUCCUGCUGUAUAUCUC [G10C G30A A57G U58A A64G U67C] yielded a self-cleavage of 0.13. UAACAGGGGCCCACAGCAGAAGCGUUCACGUCACAGCCCCUGUCGGAUUCUGGUGAAACUGCGAACUCUGCUGUAUAUCCC [G10C G33A A45G U58A U66C U80C] gave a self-cleavage of 0.18. For UAACAGGGGCCCACAGCAGAAGCGUACACGUCGCGGCCCCUGUCAGAUUCUGGUGAAACUGCGAAUUCUGCUGUAUAUCUC [G10C U26A A35G U58A], the self-cleavage was 0.14. Variant UAACAGGGGCCCACAGCAGAAGCGUCCACGCCGCAGCCCCUGUCGGAUUCUGGUGAAUCUGCGAGUUCUGCUGUAUAUCUC [G10C U26C U31C A45G A65G] has a self-cleavage of 0.17. In the case of UAACAGGGGCCCACAGCAGAAGCGUUCACGCCGCAGCCCCCGUCAGAUUCUGGUGAAUCUGCGAAUUCGGCAGUAUAUCUC [G10C U31C U41C U69G U72A], the self-cleavage is reported as 0.06. With UAACAGGGGCCCACAGCAGAAGCGUUCACGUCGCAGCCCCAGUCUGAUACUGGUGAAUCUGCGAAUUCUGCUUUAUAUCUC [G10C U41A A45U U49A G73U] the self-cleavage was 0.05. In the case of UAACAGGGGCCCACAGCAGAAGCGUUCACGUCGCAGCCCCUGACUGAUUCUGGUGAAUCUGCGGAUUCUGCUGUAUAUCUC [G10C U43A A45U A64G], the self-cleavage is reported as 0.15. UAACAGGGGCCCACAGCAGAAGCGUUCACGUCGCAGCCCCUGCCAGACUCUGGUGAAUCUGCGAUUCCUGCUGUAUAUCUC [G10C U43C U48C A65U U67C] showed a self-cleavage of 0.13. For UAACAGGGGCCCACAGCAGAAGCGUUCACGUCGCAGCCCCUGUCAGACUCUGGAGAAUCUGCGAAUUCUGCUGUAUAUGUC [G10C U48C U54A C79G], the self-cleavage was 0.09. UAACAGGGGCCCACAGCAGAAGCGUUCACGUCGCAGCCCCUGUCAGAUCCUGGUGAAUCUGCGAAUUCUGCCGUAUAUCUC [G10C U49C U72C] showed a self-cleavage of 0.35. For UAACAGGGGCCCACAGCAGAAGCGUUCACGUCGCAGCCCCUGUCAGAUUCUGGAGAAUCUGCGAAUUCAGCUGUAUAUCUC [G10C U54A U69A], the self-cleavage was 0.15. For UAACAGGGGUCCGCAGCGGAAGCGUUCACGUCGCAGCCCCUGUCGGAUUCUGGUGAAUCUGCGAAUUCUGCUGUAUAUCUC [G10U A13G A18G A45G], the self-cleavage was 0.12. UAACAGGGGUCCGCAGCAGAAGCGUCCACGUCGCUGCCCCUGCCAGAUUCUGGUGAAUCUGCGAAUUCUGCUGUAUAUCUC [G10U A13G U26C A35U U43C] gave a self-cleavage of 0.28. With UAACAGGGGUCCACAGCCGAAGCGUUCACGCCGCAGCCCCUGUCAGAUUCUGGUUAGUCCGCGAAUUCUGCUGUAUAUCUC [G10U A18C U31C G55U A57G U60C] the self-cleavage was 0.1. UAACAGGGGUCCACAGCAGUAGCGUUCACGUCGCAGCCCCUGUCAGAUUCUGGUGAAUCUGCGGAUUCUGCUGUAUAUCUC [G10U A20U A64G] gave a self-cleavage of 0.24. With UAACAGGGGUCCACAGCAGAAGCGUUCGCGUCGCAGCCCCUGUCAGAUUCUGGUGAGUCUGCGAAUUCUGCUGUAUAUCUC [G10U A28G A57G] the self-cleavage was 0.19.
